Results reported in publication PMC13423814.
Certain results were filed several times, with different values. This is not the full list of results. An entry can have further records. Some protein pairs were linked at several places, one record each.

target: H4C1 (UniProt P62805); conditions: DSSO, in cells

LMNB1, sequence (P20700 whole entry): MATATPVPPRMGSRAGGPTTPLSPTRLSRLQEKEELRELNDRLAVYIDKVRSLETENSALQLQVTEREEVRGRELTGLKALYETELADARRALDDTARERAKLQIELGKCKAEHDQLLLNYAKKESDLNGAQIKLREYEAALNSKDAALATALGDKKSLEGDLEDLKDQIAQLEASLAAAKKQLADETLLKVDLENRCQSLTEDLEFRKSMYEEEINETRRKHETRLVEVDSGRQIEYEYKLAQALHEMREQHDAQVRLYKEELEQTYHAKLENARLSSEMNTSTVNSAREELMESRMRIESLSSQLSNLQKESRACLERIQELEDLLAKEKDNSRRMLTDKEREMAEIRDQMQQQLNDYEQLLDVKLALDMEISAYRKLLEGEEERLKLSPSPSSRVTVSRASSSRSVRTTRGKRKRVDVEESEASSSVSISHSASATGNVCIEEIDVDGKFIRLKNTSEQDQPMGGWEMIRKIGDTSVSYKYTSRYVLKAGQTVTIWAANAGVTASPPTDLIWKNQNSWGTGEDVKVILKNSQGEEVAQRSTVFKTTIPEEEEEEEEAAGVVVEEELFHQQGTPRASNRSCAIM
TMPO, sequence (P42167 whole entry): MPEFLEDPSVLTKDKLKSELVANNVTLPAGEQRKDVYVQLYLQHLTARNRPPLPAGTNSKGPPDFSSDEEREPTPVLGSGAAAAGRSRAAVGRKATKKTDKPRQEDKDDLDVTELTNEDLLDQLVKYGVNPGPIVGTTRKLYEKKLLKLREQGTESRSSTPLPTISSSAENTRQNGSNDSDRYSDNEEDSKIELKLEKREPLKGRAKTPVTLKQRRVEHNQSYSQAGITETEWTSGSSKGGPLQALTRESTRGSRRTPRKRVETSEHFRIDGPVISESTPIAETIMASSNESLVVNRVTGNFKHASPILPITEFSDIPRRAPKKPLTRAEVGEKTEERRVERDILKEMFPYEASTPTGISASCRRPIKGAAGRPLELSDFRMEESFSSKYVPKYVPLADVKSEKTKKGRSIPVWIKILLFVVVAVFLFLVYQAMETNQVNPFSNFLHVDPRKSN

**Q.** H1-3, P16402 was tested. Which cross-linked residues did it give?
**A.** The cross-linked residues was “K33 - K32 and K33 - K78 and K188 - K78”.

**Q.** Which cross-linked residues does the source give for HMGA1, P17096 here?
**A.** Its cross-linked residues is “K15 - K9 and K74 - K32 and K74 - K78”.

**Q.** With LMNA, P02545 as the substance, how does the cross-linked residues read?
**A.** Its cross-linked residues is “K420 - K78 and K450 - K9 and K470 - K9”.

target: LMNB2 (UniProt Q03252); conditions: DSSO, in cells
UniProt Q03252, sequence (Q03252 whole entry): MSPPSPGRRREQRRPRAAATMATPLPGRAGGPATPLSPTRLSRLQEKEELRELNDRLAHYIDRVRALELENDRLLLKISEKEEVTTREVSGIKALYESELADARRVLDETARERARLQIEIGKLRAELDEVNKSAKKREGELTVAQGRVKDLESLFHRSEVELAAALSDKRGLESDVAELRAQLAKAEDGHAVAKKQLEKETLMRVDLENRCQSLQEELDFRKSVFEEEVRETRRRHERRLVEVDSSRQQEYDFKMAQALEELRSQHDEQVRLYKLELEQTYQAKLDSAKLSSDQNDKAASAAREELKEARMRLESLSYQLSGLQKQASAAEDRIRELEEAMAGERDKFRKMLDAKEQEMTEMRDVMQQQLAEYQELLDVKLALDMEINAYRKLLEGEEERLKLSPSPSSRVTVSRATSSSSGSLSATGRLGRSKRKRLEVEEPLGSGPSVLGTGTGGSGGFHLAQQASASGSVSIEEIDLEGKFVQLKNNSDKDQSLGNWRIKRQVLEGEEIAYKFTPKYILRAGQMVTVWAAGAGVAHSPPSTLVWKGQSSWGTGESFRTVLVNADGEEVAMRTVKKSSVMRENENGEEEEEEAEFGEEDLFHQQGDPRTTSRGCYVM

**Q.** How did the cross-linked residues turn out when LMNA, P02545 was run?
**A.** Its cross-linked residues is “K90 - K223 and K97 - K200 and K123 - K186 and K171 - K195 and K181 - K123 and K260 - K285 and K270 - K290 and K316 - K326 and K341 - K298 and K420 - K81”.

**Q.** How did the cross-linked residues turn out when TMPO, P42167 was run?
**A.** The cross-linked residues was “K334 - K123 and K334 - K133 and K334 - K137 and K334 - K150”.

**Q.** For LMNB1, P20700, which cross-linked residues is on record?
**A.** The cross-linked residues was “K102 - K200 and K123 - K186 and K156 - K150 and K182 - K123”.
